PubChem BioAssay AID2071 (Sanford-Burnham Center for Chemical Genomics, 2009)
The list shows a part of the results. The main result of the screen is listed elsewhere. These columns were measured beside it and carry no call. Compounds called inactive in the main read-out are mostly missing here.

assay: NALP1 inflammasome inhibitors in reconstituted yeast, colorimetric, S. cerevisiae, triplicate retest (AID 2071); conditions: S. cerevisiae NALP1/ASC/caspase-1 growth, X-gal OD620, 72 h, at 20 µM, stronger effect = higher value

Row | SMILES | inhibition [%]
1 | Oc1c(Br)cc(Br)cc1C=Nc1cccnc1 | 92.1
2 | Nc1c(Cl)ncnc1N/N=C/c1ccccn1 | 73.2
3 | COc1cc(NC(C)CCCN)c2ncccc2c1Oc1ccccc1 (configuration not stated) | 80.9
4 | Oc1c(Cl)cc(Cl)c2c1NCCC2 | 96.6
5 | CCCCCCCCCCCCCCCC[n+]1ccc(C(N)=O)cc1 | 99.2
6 | CCN(CC)c1ccc(N=Cc2ccc([N+](=O)[O-])o2)cc1 | 88.2
7 | Cc1cc(Cl)c(OCCOCCN2CCC(C)CC2)c(Br)c1 | 51.1
8 | CC(=O)N1N=C(c2ccc3ccccc3c2)OC1(C)C | 55.3
9 | Cc1cc(Br)ccc1OCCn1ccnc1 | 51.5
10 | Clc1ccc(OCCCNCc2ccccc2)c2ccccc12 | 110
11 | Cc1cc(C)n(C(C[N+](=O)[O-])c2ccc(Cl)cc2)n1 (configuration not stated) | 105
12 | Clc1ccc(OCCOCCN2CCc3ccccc3C2)c(Cl)c1 | 102
13 | COc1ccccc1OCC(=O)NCCSCc1ccc(Cl)cc1 | 64.9
14 | CCCCNCCOCCOc1ccc(Cl)cc1Br | 55.8
15 | CS(=O)(=O)c1nc(-c2ccco2)cc(C(F)(F)F)n1 | 113
16 | CN(C)c1ccc(/C=C/c2ccc3ccccc3[n+]2C)cc1 | 99.3
17 | O=C1/C(=C/c2ccccc2)CCCc2ccccc21 | 55.9
18 | COc1ccccc1OCCN1CSC(=S)N(C)C1 | 114
19 | Cc1ccc(C(C[N+](=O)[O-])c2c(C)[nH]n(-c3ccccc3)c2=O)cc1 (configuration not stated) | 93.8
20 | C(=C\c1nc(N2CCCC2)c2ccccc2n1)/c1ccccc1 | 107
21 | COc1ccc(NC(=S)N(C(C)C)C2CCN(C(C)C)CC2)cc1Cl | 106
22 | c1ccc(-c2cccc(-c3ccccn3)n2)nc1 | 108
23 | COCCCNCCOc1ccc(C(C)(C)c2ccccc2)cc1 | 50.9
24 | O=C(NC(=S)Nc1cccnc1)c1cc2ccccc2o1 | 66.7
25 | CSc1ccc(/C=C/C(=O)c2ccc(NC(C)=O)cc2)cc1 | 53.1

Row | SMILES | inhibition [%]
26 | NC(=O)/C=C\C(=O)Nc1cccc(C(F)(F)F)c1 | 115
27 | CC(C)(C)n1nc(-c2ccc(F)cc2)c2c(N)ncnc21 | 71.2
28 | CNCc1ccccc1Sc1cc(O)ccc1O | 79.7
29 | Cc1ccc(C(=O)O)cc1N=Cc1cc(Br)cc(Br)c1O | 74.7
30 | CN1CCC(Oc2ccc(Sc3ccccc3)cc2)CC1 | 50.8
31 | CC(C)c1ccc(N2C(=O)CC(Sc3ncn[nH]3)C2=O)cc1 (configuration not stated) | 111
32 | CSc1ccc2c(c1)N(CCC1CCCCN1C)c1ccccc1S2 (configuration not stated) | 102
33 | CCOC(=O)/C=C/C(=O)Nc1cccc([N+](=O)[O-])c1 | 113
34 | CCN1/C(=C/C=C/C=C/c2sc3ccccc3[n+]2CC)Sc2ccccc21 | 91
35 | N/C(Cc1ccc(Cl)cc1)=N\OC(=O)C1CCCCC1 | 66
36 | CCC(C)c1ccccc1NC(=O)CN1CCN(C/C=C/c2ccccc2)CC1 (configuration not stated) | 50.4
37 | O=C(CC1Sc2ncnn2C1=O)Nc1ccc(Br)cc1 (configuration not stated) | 117
38 | CNc1nc(SCc2ccccc2Cl)nc2c1CCCC2 | 110
39 | O=C(Nc1ccc(Br)c(Cl)c1)C1CC1 | 53.4
40 | O=C(Nc1cc(Cl)ccc1-n1cncn1)c1ccc([N+](=O)[O-])s1 | 95.9
41 | Cc1ccc(Nc2cc(C)nc(NCc3ccccc3)n2)cc1 | 104
42 | Cc1nc2c(=O)n(C)c(=O)n(C)c2nc1Cl | 92
43 | O=S(=O)(CC(CN1CCCCC1)N1CCCCC1)c1ccc2ccccc2c1 (configuration not stated) | 111
44 | CCCc1[nH]nc2c1C(c1ccoc1)C(C#N)=C(N)O2 (configuration not stated) | 69.7
45 | Cc1[nH]n(-c2ccccc2)c(=O)c1C(C[N+](=O)[O-])c1ccc(Br)cc1 (configuration not stated) | 97.7
46 | OC(CN1CCN(Cc2ccccc2)CC1)Cn1c2ccccc2c2ccccc21 (configuration not stated) | 93.1
47 | Cc1cc(Br)ccc1OCCCCN1CCC(C)CC1 | 65.7
48 | O=C(NC(Nc1nc2ccc([N+](=O)[O-])cc2s1)(C(F)(F)F)C(F)(F)F)c1ccccc1Cl | 96.8
49 | CN1C/C(=C/c2ccncc2)C(=O)/C(=C/c2ccncc2)C1 | 110
50 | O=C1C=CC(=O)N1CCNc1ncc(C(F)(F)F)cc1Cl | 112

Row | SMILES | inhibition [%]
51 | CC(C)N1CCC2(CC1)N=C(c1ccc3c(c1)OCO3)CC(c1cc(Cl)ccc1O)N2 (configuration not stated) | 99.9
52 | CCOC(=O)COc1ccccc1/C=C\[N+](=O)[O-] | 106
53 | C#CCN(C)CCCOc1ccc(Cl)cc1Cl | 60.7
54 | COc1ccc(NC(=O)CC2Sc3ncnn3C2=O)cc1 (configuration not stated) | 111
55 | CC[n+]1c(/C=C/c2ccc(N(C)C)cc2)ccc2ccccc21 | 97.7
56 | CCCCCCCCCCOC(=O)Cn1c(COc2ccc(Cl)cc2)[n+](C)c2ccccc21 | 91.6
57 | CCOc1ccc(N2C(=O)CC(N)C2=O)cc1 (configuration not stated) | 114
58 | CNC(=O)c1nnsc1S(=O)(=O)c1ccc(Cl)cc1 | 109
59 | CCOC(=O)c1ccc(NC(=O)CC2Sc3ncnn3C2=O)cc1 (configuration not stated) | 113
60 | CCOC(=O)c1ccc(N2C(=O)C=CC2=O)cc1 | 116
61 | Cc1cc(C)cc(N2C(=O)CC(Sc3ncn[nH]3)C2=O)c1 (configuration not stated) | 113
62 | CC(C)(C)c1cc2cccnc2n1Cc1cccc(Cl)c1 | 62.7
63 | Cc1ccc(OC(=S)Nc2ccc(O)cc2)cc1 | 98.3
64 | Cn1cnc([N+](=O)[O-])c1S(=O)(=O)c1ccc(Cl)cc1 | 104
65 | Cc1cccc(C)c1C(OCCN(C)C)C1CCCCC1 (configuration not stated) | 50.9
66 | Nc1nc(-c2ccc(Oc3ccccc3)cc2)cs1 | 100
67 | COc1ccccc1OCC(=O)NCCSCc1ccccc1Cl | 53.1
68 | Cc1ccc(S(=O)(=O)N(C(=O)c2ccncc2)c2ccc(OC(=O)c3ccncc3)c3ccccc23)cc1 | 67.6
69 | CN1CCc2cccc3c2[C@H]1Cc1ccc(O)c(O)c1-3 | 102
70 | c1cnc2c(c1)ccc1cccnc12 | 94
71 | CCOc1ccccc1NC(=O)/C=C/C(N)=O | 110
72 | CN(C)C(C)(C)C#CCC(c1ccccc1)c1ccccc1 | 61
73 | O=C(Nc1ccc(Cl)c(Cl)c1)Oc1ccc(NC(=O)c2ccco2)cc1 | 61.2
74 | OC(CNCCC1C=Nc2ccccc21)Cn1c2ccc(Cl)cc2c2cc(Cl)ccc21 (configuration not stated) | 90.3
75 | CC1=CC(=O)C=C(C)C1=NOS(=O)(=O)c1ccccc1 | 53.9

Row | SMILES | inhibition [%]
76 | CCCCCCCCCCCCCCCC[n+]1ccc(/C=N/O)cc1 | 99.1
77 | Cc1cccc2sc(N(CCCN(C)C)C(=O)c3sc4ccccc4c3Cl)nc12 | 96.8
78 | CCCCCCOc1ccc(/C(C)=N/NC2=NCCN2)cc1 | 95.9
79 | Cc1cc(Nc2ccccc2)nc2cc(O)ccc12 | 51.4
80 | Cc1c(Cl)sn(-c2ccc(Cl)cc2)c1=O | 103
81 | COc1ccc(Nc2cc(C)c3ccc(O)cc3n2)cc1 | 80.1
82 | CC1CCN(CCOc2ccc(OCc3ccccc3)cc2)CC1 | 51.4
83 | CC1(C)COC(/C=C/c2ccc([N+](=O)[O-])cc2)=N1 | 90.3
84 | CC1CCc2nc3sc4c(c3c(N)c2C1)CCCC4 (configuration not stated) | 64.6
85 | COc1ccccc1NC1=C(N2CCCCC2)C(=O)c2ccccc2C1=O | 53.9
86 | CC1CCN(c2nc(CN3CCCCC3)nc3scc(-c4ccccc4)c23)CC1 | 71
87 | S=C1SCN(Cc2cccnc2)CN1Cc1cccnc1 | 117
88 | Cc1ccc(OCCCCN(C)Cc2ccccc2)c(Br)c1 | 81
89 | c1ccc2c(Nc3nc(N4CCOCC4)c4ccccc4n3)cccc2c1 | 92.7
90 | CC1CCC2C(=O)N(c3ccc(C(=O)Oc4cccc5cccnc45)cc3)C(=O)C2C1 (configuration not stated) | 70.5
91 | COc1ccc(CCN(C)C2CC(=O)N(c3ccccc3)C2=O)cc1OC (configuration not stated) | 116
92 | O=C(c1nnsc1S(=O)c1ccc(Cl)cc1)N1CCOCC1 (configuration not stated) | 114
93 | COc1ccccc1N1CCN(CCCCOc2cccc3ccccc23)CC1 | 86.2
94 | Cc1ccc(-n2c(Cl)c(Cl)nc(Cl)c2=O)cc1 | 116
95 | CCCCCCCCNC(C)C(O)c1ccc(SC(C)C)cc1 (configuration not stated) | 87.4
96 | CN(C)CCCN(C(=O)CCOc1ccccc1)c1nc2c(F)cccc2s1 | 109
97 | Nc1ccc2c(c1)C/C(=C/c1ccco1)C2=O | 66.9
98 | OC(CNCCc1ccc(C(F)(F)F)cc1)COc1cccc2ccccc12 (configuration not stated) | 111
99 | NNC(=S)NCc1ccc2c(c1)OCO2 | 69.6
100 | CN(C)CCNC=C(C(=O)Nc1ccc(Cl)cc1Cl)C(=O)Nc1ccc(Cl)cc1Cl | 104

Row | SMILES | inhibition [%]
101 | CC(=O)N(C1=C(Cl)C(=O)c2ccccc2C1=O)C1CCCCC1 | 107
102 | NCCS | 57.1
103 | CCCNC(=O)c1nnsc1S(=O)(=O)c1ccc(Cl)cc1 | 114
104 | O=C(/C=C/c1cccc([N+](=O)[O-])c1)c1ccco1 | 71.3
105 | O=c1[nH][nH]c(-c2ccccc2O)c1C(C[N+](=O)[O-])c1ccc(Cl)cc1Cl (configuration not stated) | 61.4
106 | CN1CCN(C2=C(Cl)C(=O)C(c3cnc(N4CCCCC4)s3)=C(Cl)C2=O)CC1 | 105
107 | O=C(COC(=O)/C=C/c1cccs1)Nc1nc(-c2ccccc2)cs1 | 66.4
108 | Cc1ccc(NC(=O)CN(C)C(=O)COc2cccc3cccnc23)cc1 | 63.1
109 | COC(=O)C1(C(C[N+](=O)[O-])c2ccc(C)cc2)C(=O)NCC1c1ccco1 (configuration not stated) | 53.3
110 | CCOC(=O)C(=O)NNc1ccc(Cl)cc1 | 70.1
111 | C=CCNC(=S)N/N=C(\C)c1ccccn1 | 85.6
112 | CNC(CC(=O)c1ccc([N+](=O)[O-])cc1)C(Cl)(Cl)Cl (configuration not stated) | 82
113 | N/C(Cc1ccc([N+](=O)[O-])cc1)=N\OC(=O)c1ccccc1Br | 62.7
114 | CCC(C(=O)OC)n1cnc2scc(-c3ccc(C)c(C)c3)c2c1=O (configuration not stated) | 95.6
115 | O=C1C=CCC(/C=C/c2ccccc2)O1 (configuration not stated) | 102
116 | CN(C)CCCN(C(=O)CCS(=O)(=O)c1ccccc1)c1nc2cc3c(cc2s1)OCO3 | 111
117 | C(=C\c1nc(N2CCCCCC2)c2ccccc2n1)/c1ccccc1 | 66.7
118 | CC1=C/C(=N\OS(=O)(=O)c2ccccc2)C(C(C)C)=CC1=O | 55.3
119 | CCOC(=O)C(=Cc1cc(=O)c(OC)co1)C(=O)OCC | 101
120 | CCc1cc(OCCCCNCc2ccccc2)ccc1Cl | 111
121 | COC(=O)Cn1nc(-c2ccccc2)c2ccccc21 | 116
122 | CCOC(=O)C(C(=O)OCC)C(C(=O)OCC)N1CCOCC1 (configuration not stated) | 71.2
